We go through 44 sequences from the supplement of paper PMC11417369.

Some of the results follow.

The experiment deals with PF3D7_0420300 AP2 domain 1 (GST-tagged). Description: gcPBM binding intensity (ln(normalized median fluorescence intensity)); higher = stronger DNA binding. Summed up:
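An Agilent 4 × 180k array carrying primer-extended double-stranded 36-bp intergenic genomic probes and negative controls received GST-tagged P. falciparum DNA-binding domains expressed in E. coli, about 25 μg on average, for 1 h. The binding buffer contained 1× PBS, 1% milk, 0.2 mg/ml BSA, 0.5% salmon testes DNA and 0.03% Triton X-100. Binding intensity is the top Masliner-normalised natural-log median intensity across replicate spots of either probe orientation, read after Alexa488 anti-GST antibody staining and a 488 nm scan.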
“AGTTATTACACACAAACATGCATTAATATCAAAAAA [TGCATGCA_site63]”: the “gcPBM binding intensity (ln)” value stood at 9.64.

Take “AAATATATATATAGTACATGCAGTAGATAATTTAAT [TGCATGCA_site299]”: the “gcPBM binding intensity (ln)” value amounted to 9.51.

On to “ATTAGGTATTTTTTTTGTACATATTATATAATGTGA [XGTACX_site3815]”, for which the “gcPBM binding intensity (ln)” value was 9.33.

For the sequence “TAATTTTATATAAATTGTACAAAAATATTTTATTAA [XGTACX_site7166]”, the “gcPBM binding intensity (ln)” value amounted to 8.76.

With “TGCAGGTGTTATTCACGTACGCATTTGATTAAAAAA [XGTACX_site7743]”, the “gcPBM binding intensity (ln)” value is 8.96.

Turning to “TAAAATATACAAATTTGTACATATATATGTATGTAT [XGTACX_site1127]”, the “gcPBM binding intensity (ln)” value is 9.33.

Regarding “ATAAAAACATAAAAATGTACATATATATATATATAT [XGTACX_site7165]”, the “gcPBM binding intensity (ln)” value came out at 9.23.

In the case of “ATTAGAAAATAAAATAATAAATAAAATAAAAAAAAA [CACACA_negctrl_site409]”, the “gcPBM binding intensity (ln)” value turned out to be 9.37.

On to “TTTTATTTTATTCAATTTTTACTTTTATAAAAATAT [GTGCAC_negctrl_site578]”, for which the “gcPBM binding intensity (ln)” value turned out to be 9.04.

In the case of “AATATTAGGTTATGTAGTACATAACAATAATTATAC [XGTACX_site5733]”, the “gcPBM binding intensity (ln)” value was 9.29.

For GTGTTGGGAAAAGGCATGCACTTTTTTTTTTTTTTT, the “gcPBM binding intensity (ln)” value came to 9.23.

Consider “ATGTATATGCAAACATGTACATATATAAACATATAT [XGTACX_site4159]”, for which the “gcPBM binding intensity (ln)” value came out at 9.16.

Regarding “AAGGAATATGTATATACACACAGGTACATATTTATA [CACACA_site6344]”, the “gcPBM binding intensity (ln)” value was found to be 9.53.

“ATAAAGAATATAAATACACACTTAAATATATATTAT [CACACA_site6071]”: the “gcPBM binding intensity (ln)” value came out at 9.53.

As for TTTATATTTAAAAGGATGCACTACAAATTCTAAATA, the “gcPBM binding intensity (ln)” value is 9.08.

As for “TATCCTTATATTTGCACACACACACCCTAAAATGAA [CACACA_site1029]”, the “gcPBM binding intensity (ln)” value came out at 10.1.

On to “AAGACAAATATGAAGAGTACATTTATATAAAAATTA [XGTACX_site5142]”, for which the “gcPBM binding intensity (ln)” value was 9.24.

For “CTACAATATCTTTAAAGTACTTTTATATAACTACCA [XGTACX_site6119]”, the “gcPBM binding intensity (ln)” value is 9.14.

For “AAAACAAACAGACACACACACATATTTATATTTATA [CACACA_site7681]”, the “gcPBM binding intensity (ln)” value turned out to be 10.1.

As for “TTATATTAAACAAACACACACATATAAATATAAATA [CACACA_site7174]”, the “gcPBM binding intensity (ln)” value is 9.93.

Regarding ATATATTTTTATGTAGTGCATTTAAATAATAAATGC, the “gcPBM binding intensity (ln)” value was 9.05.

In the case of “ATTTTTTCCAATTCTTTACCTTAGAAAGGTGTTCAA [CACACA_negctrl_site1401]”, the “gcPBM binding intensity (ln)” value was 9.05.

“ACCTCATAATATTTAACACACAAAATTATATGTATG [CACACA_site1704]”: the “gcPBM binding intensity (ln)” value worked out at 9.57.

On to “ATATATATATAATGAAGTACGAAAAAATAAGAAATG [XGTACX_site4001]”, for which the “gcPBM binding intensity (ln)” value stood at 9.65.

For “ATTCTAAATAAATGTACACACAAAAATAAATGTATA [CACACA_site1732]”, the “gcPBM binding intensity (ln)” value is 9.54.

Consider “AATGATCAGATATACACACACACAAAAAAAAAAAAA [CACACA_site7806]”, for which the “gcPBM binding intensity (ln)” value worked out at 9.99.

Regarding “GTAAATAAATAAATAAATAAATATATATATATATAT [CACACA_negctrl_site1737]”, the “gcPBM binding intensity (ln)” value came out at 9.11.

As to “AATAAAAAAAAATTCACACAAAGTTAGATTAACTAT [CACACA_site4224]”, the “gcPBM binding intensity (ln)” value came to 9.26.

With “TATGAATATTGCATGTGTACCTATTATCCTTTTAAA [XGTACX_site4311]”, the “gcPBM binding intensity (ln)” value is 9.39.

In the case of “ATAATTATTTTCCCGTGTACTTATTTTTTTCAAGTA [XGTACX_site8843]”, the “gcPBM binding intensity (ln)” value amounted to 9.35.

“ATATAAAATAAAAAAAAAAAAAAAAAAAAAAAAAAA [CACACA_negctrl_site1234]”: the “gcPBM binding intensity (ln)” value is 8.39.

With “TTTTTGTATCCTTTTAATATTAAATAAAAGGAATGT [CACACA_negctrl_site1468]”, the “gcPBM binding intensity (ln)” value worked out at 8.99.

Consider “TTAATGTTTGAAAGAGTGCACATAACAAAAAAAAAA [GTGCAC_site9623]”, for which the “gcPBM binding intensity (ln)” value amounted to 9.31.

Consider “TAATTAAAAAATGAATAAATGAATAAATAAATAAAT [CACACA_negctrl_site838]”, for which the “gcPBM binding intensity (ln)” value is 9.26.

As for “AAAAAAAAAAAGATAAATACAAGTTACACAAAAAAA [GTGCAC_negctrl_site664]”, the “gcPBM binding intensity (ln)” value worked out at 9.34.

Consider ACGTTGCGACGCAAGGTGCTTATTTTCTTATAAATA, for which the “gcPBM binding intensity (ln)” value was 9.04.

Regarding “AACAAATTTTTTATTAAACACACAAACATATATATA [CACACA_site8588]”, the “gcPBM binding intensity (ln)” value stood at 9.47.

Regarding “TGTGAATATATCTTTAAAAAGGATAAATAATAATTT [CACACA_negctrl_site507]”, the “gcPBM binding intensity (ln)” value came out at 9.04.

For the sequence “GCTCATTGAAATTATACACACCAAATATATAAATAT [CACACA_site5385]”, the “gcPBM binding intensity (ln)” value was 9.4.

For the sequence “AATAAGAATTAAAAATGTACAAAAAAATGTATTTAT [XGTACX_site8005]”, the “gcPBM binding intensity (ln)” value amounted to 9.35.

“AAGTATAAAATATTTTGTACTTAAAAAATTATATGG [XGTACX_site2180]”: the “gcPBM binding intensity (ln)” value came out at 9.08.

On to “AGTGGGATTTTTAATTGTACATAAATAATATCATAA [XGTACX_site4163]”, for which the “gcPBM binding intensity (ln)” value is 9.02.

Consider “CATGTTATATATATATGTACTAAAAATATAATATAA [XGTACX_site1978]”, for which the “gcPBM binding intensity (ln)” value amounted to 9.18.

As to “TTTTTTTTTTTTGGTAGTACATAAATATTTTATGGA [XGTACX_site6851]”, the “gcPBM binding intensity (ln)” value amounted to 8.93.
